# Results: PubChem BioAssay AID463173 (ICCB-Longwood Screening Facility, Harvard Medical School, 2010)
# Among all 52,000 compounds or so, about 4,300 (8.3%) were called active. Cut-off read from the data, not from the text of the source: active = survival mostly below about 52% (no sharp cut-off); inactive = mostly above about 56%. This is one part of the list.
# System: DeltatarO mutant
# Assay: growth inhibition of S. aureus wild type versus tarO mutant, primary screen, teichoic acid synthesis inhibitors, RN4220, OD600 (AID 463173)
# Settings: OD600, 18 h, hits give low values, screened at 18.75 µg/mL (by protocol)
row,SMILES,survival
1,COc1ccc(CNC(=O)Nc2cn(CC(C)C)c(=O)c3ccccc23)c(OC)c1,inactive: 67%
2,Cc1cc(C)cc(NC(=O)C2CCN(S(=O)(=O)c3cccc4nonc34)CC2)c1,inactive: 83%
3,Cc1nc2sccn2c1-c1csc(Nc2cccc(Cl)c2C)n1,active: 15%
4,CCc1ccc(CNC(=O)c2ccc(CSc3nc4ccncc4n3Cc3ccccc3)cc2)cc1,inactive: 78%
5,CCC(Oc1ccccc1)C(=O)Nc1nnc(S(=O)(=O)Nc2ccccc2)s1 (centres undefined),active: 40%
6,COCCNC(=O)CCC(=O)NNc1nc2ccccc2c2nc(-c3ccccc3)nn12,inactive: 76%
7,CCOc1ccc(NC(=O)CSc2ncc3c(n2)-c2ccccc2N(C)S3(=O)=O)cc1,inactive: 75%
8,Cc1ccc(NC(=O)N2CCC(n3c(C)nc4cccnc43)CC2)c(Cl)c1,inactive: 80%
9,Clc1ccccc1-c1nc(Nc2ccccc2)nc2ccc(Br)cc12,active: 47%
10,Cc1ccc(NC(=O)c2cc(S(=O)(=O)N3CCOCC3)c(Cl)cc2Cl)cc1,inactive: 68%
11,CCOC(=O)C1CCCN(S(=O)(=O)c2ccc3[nH]c(=O)ccc3c2)C1 (centres undefined),inactive: 91%
12,Cc1ccc(S(=O)(=O)NCc2nc3nc(C)cc(C)n3n2)c(C)c1,inactive: 125%
13,CCN1c2ccccc2-c2nc(SCC(=O)Nc3ccc(C)c(Cl)c3)ncc2S1(=O)=O,active: 25%
14,CCOC(=O)c1ccccc1NC(=O)CSc1nc2ncccc2[nH]1,inactive: 78%
15,Cc1ccc(C)c(N(C)C(=O)C2CCN(S(=O)(=O)c3cccc4nsnc34)CC2)c1,inactive: 99%
16,COc1ccc(-c2nnn3c2nc(N2CCCC(C)C2)c2ccccc23)cc1 (centres undefined),active: -3%
17,CC(=O)c1cc(C(=O)Nc2cccc(C)c2)c2ccccn12,inactive: 88%
18,COc1ccc(N2CCN(C(=O)CCS(=O)(=O)c3cc4c(cc3Cl)NC(=O)CO4)CC2)cc1,inactive: 87%
19,COC(=O)CCc1sc(Nc2ccc(OC)cc2)nc1-c1ccc(OC)cc1,inactive: 55%
20,Cc1ccccc1NC(=O)CC1C(=O)NCCN1C(=O)c1cccc(Cl)c1 (centres undefined),inactive: 64%
21,CC(=O)c1ccc(N2CCN(C(=O)NCc3noc4ccc(C)cc34)CC2)cc1,inactive: 45%
22,CCn1c2ccccc2c2cc(NC(=O)COC)ccc21,active: 43%
23,Cc1ccc(N(C(=O)Cn2nnc3ccccc32)C(C(=O)NCc2ccco2)c2cccnc2)cc1C (centres undefined),inactive: 65%

row,SMILES,survival
1,CCNC(=O)CCSc1nnc(-c2ccccc2C)o1,inactive: 89%
2,CCCC(=O)NCCc1ccc(F)cc1,inactive: 119%
3,CCN(C(=O)Cc1c(C(=O)O)[nH]c2ccccc12)c1ccc(OC)cc1,inactive: 65%
4,CCc1ccc(CN(C(=O)c2nc(SC)ncc2Cl)C2CCS(=O)(=O)C2)cc1 (centres undefined),inactive: 71%
5,CCC(=O)N1c2ccccc2CC1C(=O)N1CCN(c2ccccc2)CC1 (centres undefined),inactive: 75%
6,Cc1ccc(Cl)cc1NC(=O)c1ccc(-c2nc(CSc3ccccc3)c(C)o2)cc1,inactive: 79%
7,CC(C)Cc1nn2c(=O)cc(COC(=O)c3ccc(NC(=O)c4cccs4)cc3)nc2s1,inactive: 122%
8,Cc1ccc2c(CNCCc3ccc(Cl)cc3)c(C(=O)O)n(Cc3ccc(F)cc3)c2c1,active: 8%
9,CCOC(=O)c1ccc(NC(=O)CC2C(=O)N(c3ccccc3)C(=O)N2Cc2cccs2)cc1 (centres undefined),inactive: 65%
10,Cc1ccc(S(=O)(=O)c2[nH]c(-c3ccccc3)nc2SCC(=O)O)cc1,inactive: 78%
11,COc1ccc(N2CCN(CC(O)COc3ccc(C(C)(C)C)cc3)CC2)cc1 (centres undefined),inactive: 84%
12,O=c1c2sc3ccccc3c2n(Cc2ccccc2)c(=O)n1Cc1ccccc1,inactive: 114%
13,CCOc1ccc(CNC(=O)c2ccc3nc(Cc4ccc(OC)cc4)oc3c2)cc1OC,inactive: 69%
14,CCOC(=O)C1CCN(C(=O)C2COc3ccccc3C2)CC1 (centres undefined),inactive: 72%
15,O=C(c1cc2ccccc2oc1=O)N(Cc1cccc(Cl)c1)C1CCS(=O)(=O)C1 (centres undefined),inactive: 137%
16,Cc1ccc(CN2CCSc3ccc(C(=O)N4CCN(c5cccc(C)c5C)CC4)cc32)cc1,active: 27%
17,COc1ccc(-c2cnc(C)o2)cc1S(=O)(=O)Nc1ccc(C)c(F)c1,inactive: 67%
18,O=S(=O)(NCCc1csc(-c2ccc(F)cc2)n1)c1ccc(Cl)cc1,inactive: 77%
19,O=c1c2c3c(sc2nnn1Cc1ccc(Br)cc1)CCCC3,active: 37%
20,CCOc1ccccc1NC(=O)Cn1c(=O)ccc2cc(S(=O)(=O)N3CCC(C)CC3)ccc21,inactive: 55%
21,CCOC(=O)c1ccc(NC(=O)CCc2c(C)nc3c(c(C)nn3C)c2C)cc1,inactive: 93%
22,COc1cc(C(Nc2ccc(S(=O)(=O)NCC3CCCO3)cc2)C(=O)NC(C)(C)C)cc(OC)c1OC (centres undefined),inactive: 109%
23,COc1ccc(CCC(=O)NCc2ccc3c(c2)CCN3C(=O)c2ccccc2)cc1,inactive: 79%

row,SMILES,survival
1,CCC(Sc1nc(-c2ccc(F)cc2)nc2c1Cc1c(CO)cnc(C)c1O2)C(=O)Nc1ccc(F)cc1 (centres undefined),inactive: 64%
2,COc1c(Cl)cc(C(=O)N(Cc2ccccc2F)C2CCS(=O)(=O)C2)cc1Cl (centres undefined),inactive: 82%
3,CCS(=O)(=O)N1CCc2cc(C(=O)N3CCN(c4ccccc4OC)CC3)ccc21,inactive: 98%
4,CC(C)(C)OC(=O)N1CCc2nc(N3CCN(c4ncccn4)CC3)ncc2C1,inactive: 89%
5,COc1ccc2cc(C#N)c(N3CCN(Cc4nnnn4CCC(C)C)CC3)nc2c1,inactive: 98%
6,c1ccc(CN2CCN(CCN3CCCCC3)CC2)cc1,inactive: 67%
7,Cc1ccc(-c2onc(C)c2C)cc1S(=O)(=O)N1CCOc2ccc(Cl)cc21,inactive: 82%
8,COc1ccc(-n2c(SCC(N)=O)nc3c(oc4ccccc43)c2=O)cc1,inactive: 92%
9,CC(=O)N1CCc2c(sc3c2c(=O)n(Cc2ccccc2)c(=O)n3Cc2ccccc2F)C1,inactive: 85%
10,CC(C)CN1CCc2nc(Nc3ccc(F)cc3F)ncc2C1,inactive: 92%
11,COc1cc(/C=C(\C#N)c2nc3ccccc3[nH]2)ccc1OCc1ccccc1F,inactive: 50%
12,Cc1cc(C)cc(NC(=O)N2CCC(CN3CCCCCC3)CC2)c1,inactive: 90%
13,CCOc1ccc2nc(NC(=O)c3nc(SCc4ccccc4C)ncc3Cl)sc2c1,inactive: 87%
14,CCCSc1ncc(Cl)c(C(=O)Nc2c(C(=O)c3ccc(C)cc3)oc3ccccc23)n1,inactive: 56%
15,CCC(=O)N1c2ccc(S(=O)(=O)CCC(=O)N3CCN(c4cc(C)ccc4C)CC3)cc2CC1C (centres undefined),inactive: 85%
16,COc1ccc(C(CNC(=O)c2ccc(F)cc2)N2CCCC2)cc1 (centres undefined),inactive: 96%
17,Cc1c(CCNC(=O)c2ccc(Br)o2)sc2nc(-c3ccc(Cl)cc3)nn12,inactive: 75%
18,Cc1ccc(C(=O)N2CCCCC2)cc1NC(=O)c1nsc2ccccc12,active: -4%
19,COc1ccc(S(=O)(=O)N2CCC(N3CCN(Cc4ccc(F)cc4)C(=O)C3=O)CC2)cc1,inactive: 75%
20,CN(C)CCNCc1cc2c(-c3cccc(F)c3)nn(-c3ccccc3)c2[nH]c1=O,inactive: 99%
21,O=C(Nc1ccccc1C(F)(F)F)C1CCN(S(=O)(=O)Cc2ccccc2)CC1,inactive: 75%
22,O=C(CC1S/C(=N\N=C2CCCCC2)NC1=O)Nc1ccc(F)cc1 (centres undefined),inactive: 104%
23,CCc1ccc(C(=O)c2cn(CC(=O)Nc3cc(OC)ccc3OC)c3nc(C)ccc3c2=O)cc1,inactive: 123%

row,SMILES,survival
1,C=CCN1CCN(Cc2nnnn2Cc2ccc(OC)cc2)CC1,inactive: 101%
2,O=C(CSc1nc2nccnc2c(=O)n1CCc1c[nH]c2ccccc12)Nc1ccccc1,inactive: 73%
3,c1ccc2c(c1)CN1CCCC1=N2,inactive: 76%
4,COC(=O)c1c(NC(=O)/C(C#N)=C/c2ccc(OC)cc2)sc2c1CCC2,inactive: 154%
5,O=C(NC1CC(=O)N(c2ccccc2)C1)C(c1ccccc1)c1ccccc1 (centres undefined),inactive: 89%
6,Cc1ccc(-n2c(=O)c3sc4ccccc4c3n(C)c2=O)cc1F,inactive: 77%
7,COc1cccc(NC(=O)c2oc3ccccc3c2NC(=O)c2ccc(F)c(F)c2)c1,inactive: 57%
8,Cc1cc2nsnc2c(S(=O)(=O)NCC(=O)O)c1C,inactive: 101%
9,CCOc1ccc2c(c1)c(=O)c(C(=O)c1ccc(CC)cc1)cn2CC(=O)Nc1ccccc1OC,inactive: 68%
10,COc1ccc(OC)c(NC(=O)Cn2c(=O)c3cccn3c3ccccc32)c1,active: 41%
11,O=C(Nc1cccc(Cl)c1)C1CCCN(c2nn3cc(-c4ccc(F)cc4)nc3s2)C1 (centres undefined),inactive: 78%
12,CCn1c(=O)n(-c2ccc3c(c2)OCO3)c2nc(-c3ccc(C(C)C)cc3)nc(C(N)=O)c21,inactive: 121%
13,COc1ccc2[nH]c3c(c2c1)CCn1c-3nc2ccccc2c1=O,inactive: 87%
14,CCOC(=O)C1CCN(C(=O)c2nn(-c3ccc(OC)c(Cl)c3)c(=O)c3c2c2ccccc2n3C)CC1,inactive: 76%
15,Cc1ccc(Cl)cc1NC(=O)CSc1nc2ccccc2c2nc(-c3ccccc3)nn12,inactive: 113%
16,CCOc1ccc(C(=O)Nc2cc(-c3nc4cc(OC)ccc4o3)ccc2C)cc1[N+](=O)[O-],inactive: 62%
17,Cc1ccc(S(=O)(=O)c2cn(CC(=O)Nc3cccc(Cl)c3)c3ccccc3c2=O)cc1,inactive: 112%
18,Cc1cc(C)nc(SCc2nnc(SCC(=O)N3c4ccccc4Sc4ccc(Cl)cc43)o2)n1,inactive: 80%
19,O=C(CCn1c(=O)c2cccn2c2cccnc21)NCc1ccccc1Cl,inactive: 85%
20,O=C(NCC(c1cccnc1)N1CCN(c2ccccc2F)CC1)C(=O)Nc1ccc(F)cc1F (centres undefined),inactive: 53%
